Laboratory results reported in publication PMC9911399, “Two distinct binding modes provide the RNA-binding protein RbFox with extraordinary sequence specificity”.
Changes are numbered by the printed parent chain; changes in the protein carry UniProt numbers. The list shows a part of the results.

T1: RBFOX1 RRM RbFoxmut (Fox-RRM*) (Homo sapiens, UniProt Q9NWB1 109-208, R118D;E147R;N151S;E152T)
T1 sequence: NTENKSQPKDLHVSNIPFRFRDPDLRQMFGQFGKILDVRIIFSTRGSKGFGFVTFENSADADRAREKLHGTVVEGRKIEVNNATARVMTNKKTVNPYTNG

B1: AAGUCGU (DNA:RNA)
RNA: GGGAGACCGGAAUUCAGAUUGUCCAAGUCGUUUAAAUCCCGUCGUAGCCACCA
DNA 1: CAATCTGAATTCCGGTCTCCC
DNA 2: TGGTGGCTACGACGGGATT
B2: UGUCAAG (DNA:RNA)
RNA: GGGAGACCGGAAUUCAGAUUGUCCUGUCAAGUUAAAUCCCGUCGUAGCCACCA
DNA 1: CAATCTGAATTCCGGTCTCCC
DNA 2: TGGTGGCTACGACGGGATT
B3: GGCGGUA (DNA:RNA)
RNA: B2 RNA with U25G, U27C, C28G, A29G, A30U, G31A
DNA 1: CAATCTGAATTCCGGTCTCCC
DNA 2: TGGTGGCTACGACGGGATT
B4: ACGUGGA (DNA:RNA)
RNA: B1 RNA with A26C, C29G, U31A
DNA 1: CAATCTGAATTCCGGTCTCCC
DNA 2: TGGTGGCTACGACGGGATT
B5: GACAUAA (DNA:RNA)
RNA: B1 RNA with A25G, G27C, U28A, C29U, G30A, U31A
DNA 1: CAATCTGAATTCCGGTCTCCC
DNA 2: TGGTGGCTACGACGGGATT
B6: ACGCAUG (DNA:RNA)
RNA: B2 RNA with U25A, G26C, U27G, A30U
DNA 1: CAATCTGAATTCCGGTCTCCC
DNA 2: TGGTGGCTACGACGGGATT
B7: GGAUGUC (DNA:RNA)
RNA: B1 RNA with A25G, A26G, G27A, C29G, G30U, U31C
DNA 1: CAATCTGAATTCCGGTCTCCC
DNA 2: TGGTGGCTACGACGGGATT
B8: GAGGGAC (DNA:RNA)
RNA: B1 RNA with A25G, U28G, C29G, G30A, U31C
DNA 1: CAATCTGAATTCCGGTCTCCC
DNA 2: TGGTGGCTACGACGGGATT
B9: ACGAUCG (DNA:RNA)
RNA: B1 RNA with A26C, U28A, C29U, G30C, U31G
DNA 1: CAATCTGAATTCCGGTCTCCC
DNA 2: TGGTGGCTACGACGGGATT
B10: UGUUGGG (DNA:RNA)
RNA: B2 RNA with C28U, A29G, A30G
DNA 1: CAATCTGAATTCCGGTCTCCC
DNA 2: TGGTGGCTACGACGGGATT
B11: UACUUGU (DNA:RNA)
RNA: B1 RNA with A25U, G27C, C29U
DNA 1: CAATCTGAATTCCGGTCTCCC
DNA 2: TGGTGGCTACGACGGGATT
B12: UGUCAUU (DNA:RNA)
RNA: B2 RNA with A30U, G31U
DNA 1: CAATCTGAATTCCGGTCTCCC
DNA 2: TGGTGGCTACGACGGGATT
B13: CCUGAAG (DNA:RNA)
RNA: B2 RNA with U25C, G26C, C28G
DNA 1: CAATCTGAATTCCGGTCTCCC
DNA 2: TGGTGGCTACGACGGGATT
B14: GCUGCGA (DNA:RNA)
RNA: B1 RNA with A25G, A26C, G27U, U28G, U31A
DNA 1: CAATCTGAATTCCGGTCTCCC
DNA 2: TGGTGGCTACGACGGGATT
B15: AUAUGAU (DNA:RNA)
RNA: B1 RNA with A26U, G27A, C29G, G30A
DNA 1: CAATCTGAATTCCGGTCTCCC
DNA 2: TGGTGGCTACGACGGGATT
B16: AGUACUU (DNA:RNA)
RNA: B1 RNA with A26G, G27U, U28A, G30U
DNA 1: CAATCTGAATTCCGGTCTCCC
DNA 2: TGGTGGCTACGACGGGATT
B17: GGCAGCC (DNA:RNA)
RNA: B2 RNA with U25G, U27C, C28A, A29G, A30C, G31C
DNA 1: CAATCTGAATTCCGGTCTCCC
DNA 2: TGGTGGCTACGACGGGATT
B18: UCAGGAA (DNA:RNA)
RNA: B2 RNA with G26C, U27A, C28G, A29G, G31A
DNA 1: CAATCTGAATTCCGGTCTCCC
DNA 2: TGGTGGCTACGACGGGATT
B19: AAGGCCC (DNA:RNA)
RNA: B1 RNA with U28G, G30C, U31C
DNA 1: CAATCTGAATTCCGGTCTCCC
DNA 2: TGGTGGCTACGACGGGATT
B20: ACCCUGC (DNA:RNA)
RNA: B1 RNA with A26C, G27C, U28C, C29U, U31C
DNA 1: CAATCTGAATTCCGGTCTCCC
DNA 2: TGGTGGCTACGACGGGATT

Each binder was assayed against T1, RBFOX1 RRM RbFoxmut (Fox-RRM*) (assay: EMSA; HiTS-Eq, 1 nM pool, 10 min; buffer printed only for the single-RNA assays: 10 mM Tris pH 7.5, 150 mM NaCl, 3.4 mM EDTA, 0.001% NP-40, 30 C). Details: tags: His6 N-terminal (pET28a); label: 5' 32P.
In short: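 Purified RbFox RRM, wild type or mutant, was incubated for 10 min in 50 µL with 1 nM of a 5′-radiolabelled RNA pool carrying 7 randomized nucleotides, whose flanks were annealed to DNA oligonucleotides, over a series of increasing protein concentrations. Unbound RNA was resolved on 8% native PAGE, cut out, reverse-transcribed, barcoded by PCR and sequenced on an Illumina HiSeq 2500. Relative association constants were derived from changes in read counts for each RNA species versus the control reaction and normalised to the cognate motif.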

Binder | binding signal
B1 | 0.108 KA relative to UGCAUGU
B2 | 0.11 KA relative to UGCAUGU
B3 | 0.146 KA relative to UGCAUGU
B4 | 0.0939 KA relative to UGCAUGU
B5 | 0.115 KA relative to UGCAUGU
B6 | 0.844 KA relative to UGCAUGU
B7 | 0.295 KA relative to UGCAUGU
B8 | 0.0647 KA relative to UGCAUGU
B9 | 0.106 KA relative to UGCAUGU
B10 | 0.0997 KA relative to UGCAUGU
B11 | 0.13 KA relative to UGCAUGU
B12 | 0.0811 KA relative to UGCAUGU
B13 | 0.0788 KA relative to UGCAUGU
B14 | 0.118 KA relative to UGCAUGU
B15 | 0.0827 KA relative to UGCAUGU
B16 | 0.0864 KA relative to UGCAUGU
B17 | 0.119 KA relative to UGCAUGU
B18 | 0.109 KA relative to UGCAUGU
B19 | 0.0497 KA relative to UGCAUGU
B20 | 0.11 KA relative to UGCAUGU
